The values below come from the RNAGym collection of RNA variant scans (doi:10.7554/elife.90254).

B1: OR4K15 (parent)
chain: GUUAACGGUCAUAGGCCAUGGAAACUAGGAGCACCAUUUCGCUGCCAGUGAAGAAAUGAACAAAGAAAAUCUGGGCCAGGCAGGCAUCAAAAGAAAUAGUCUUGCGCUCAACCAGAAAGUCUGUAAUCAUUUUAAGGGUA

Read counts are not given, so values of variants with three or more changes are uncertain.

Variants of B1 are the subject of this data set. The experiment in a line: self-cleavage, relative activity (ratio to wild type); higher = more cleavage; in vitro, sequencing; the parent is a self-cleaving ribozyme.
With GUUAACGGUCUUAGGCCAUGGAAGCUAGGAGCACCACUUCGCUGCCAGUGAAGAAAUGAACAGAGAAAAUCUGGGCCAGGCAGGCAUCAAAAGAAAUAGUCUUGCGCUCAACCAGAAAGUCUGUAAUCAUUUUAAAGGUA [A11U A24G U37C A63G G136A], the self-cleavage turned out to be 2.42. On to GUUAACGGUCUUAGGCCAUGGAAACUAGGAGCACCAUUUCGCUGCCAGUGAGGAAAUGAACAAAGAAACUCUGGGCCAGGCAGGCAUCAAAAGAAAUAGUCUUGCGCUCAACCAGAAAGUCUGUAAUCAUUUUAAGGGUA [A11U A52G A69C], for which the self-cleavage came out at 1.41. For the variant GUUAACGGUCUUAGGCCAUGGAAACUAGGAGCGCCAUUUCGCUGCCAGUGGAGAAAUGAACAAAGAAAAUCUGGGCCAGGCAGGCAUCAAAAGAAAUAGUCUUGCGCUCAACCAGAAAGUCUGUAAUCAUUUUAAGGGUA [A11U A33G A51G], the self-cleavage stood at 0.19.

In the case of GUUAACGGUCUUAGGCCAUGGAAACUGGGAGCACCAUUUCGCUGCCAGUGAAGAGAUGAACAAAGAAAAUCUGGGCCAGGCAGGCACCAGAUGAAAUAGUCUUGCGCUCAACCAGAAAGUCUGUAAUCAUUUUAAGGGUA [A11U A27G A55G U87C A90G A92U], the self-cleavage is 0.18. Take GUUAACGGUCUUAGGCCAUGGAAACUAGGGGCACCAUUUCGCUGCCAGUGAAGAAAUGAACAAAGAAAAUCUGGGCCAGGCAGGCAUCAAAAGAAAUAGCCUUGCGCUCAACCAGAAAGUCUGUAAUCAUUUUAAGGGUA [A11U A30G U100C]: the self-cleavage was 1.1.

GUUAACGGUCUUAGGCCAUGGAAACUAGGAGCACCAUUUCGCUGCCAGUGUAGAAAUGAACAAAGAAAGUCUGGGCCAGGCAGGCAUCAAAAGAAAUAGUCUUGCGCUCAACCAGAAAGUCUGUAAUCAUUUUAAGGGUA [A11U A51U A69G]: the self-cleavage was 1.45. In the case of GUUAACGGUCUUAGGCCAUGGAAACUAGGAGCACCAUUUCGCUGCCAGUGAAGGAAUGAACAAAGAAAAUCUGGGCCAGGCAGGCAUCAAAGGAAAUAGUCUUGCGCUCAACCAGAAAGUCUGUAAUCAUUUUAAGGGUA [A11U A54G A92G], the self-cleavage stood at 0.84. On to GUUAACGGUCUUAGGCCAUGGAAACUAGGCGCACCAUUUCGCUGCCAGCGAAGAAAUGAACAAAGAAAAUCUGGGCCAGGCAGGCAUCAAAAGAAAUAGUCUUGCGCUCAACCAGAAAGUCUGUAAUCAUUUUAAGGGUA [A11U A30C U49C], for which the self-cleavage was 0.99.

For the variant GUUAACGGUCUUAGGCCAUGGAAGCUAGGAGCACCAUUUCGCUGCCAGUGUAGAAAUGAACAAAGAAAAUCUGGGCCAGGCAGGCAUCAAAAGGAAUAGUCUUGCGCUCAACCAGCAAGUCUGUAAUCAUUUUAAGGGUA [A11U A24G A51U A94G A116C], the self-cleavage turned out to be 0.22.

As for GUUAACGGUCUUAGGCCAUGGAAACUAGGAGCACCAUUUCGCUGCCUGUGAAGAAAUGAACAAAGAAAAUCUGGGCCAGGCAGGCAUCAAAAGAUAUAGUCUUGCGCUCAACCAGAAAGUCUGUAAUCAUUUUAAGGGUA [A11U A47U A95U], the self-cleavage was 0.43. For GUUAACGGUCUUAGGCCAUGGAAACUAGGAGCACCAUUUCGCUGCCAGUGAUGAAAUGAACAAAGAAAAUCUGGGCCAGGCAGGCAUCAAAAGAAAUAGUCUUGCGCUCAACCAGAAGGUCCGUAAUCAUUUUAAGGGUA [A11U A52U A118G U122C], the self-cleavage worked out at 0.36. Turning to GUUAACGGUCUUAGGCCAUGGAAACUAGGAGCACCAUUUCGCUGCCAGUGAAGAAAUGAACUAAGAAAAUCUGGGCCAGGCAGGCAUCAAAAGAAAUAGUCUUGCGCUCCACCAGAAAGUCUGUAAUCAUUUUAAGGGUA [A11U A62U A110C], the self-cleavage worked out at 0.44. For GUUAACGGUCUUAGGCCAUGGAAACUAGGAGCACCAUUUCGCUGCCAGUGAGGAAAUGAACAAAGAAAAUCUGGGCCAGGCAGGCAUCAAAUGAAAUAGUCUUGCGCUCAACCAGAAAGUCUGUAAUCAUUUUAAGGGUA [A11U A52G A92U], the self-cleavage amounted to 0.95. Turning to GUUAACGGUCUUAGGCCAUGGAAACUAGGAGCUCCAUUUCGCUGCCAGUGAAGAAAUGAACAAAGAAAAACUGGGCCAGGCAGGCAUCAAAAGAAAUAGUCUUGCGCUCAACCAGAAAGUCUGUAAUCAUUUUAAGGGUA [A11U A33U U70A], the self-cleavage turned out to be 0.41.

For the variant GUUAACGGUCUUAGGCCAUGGAGACUAGGAGCACCAUUUCGCUGCCAGUGAAGAAAUGAACAAAGAAAAUCUGGGCCAGGCAGGCAUCAAAAGAAAUAGUCUUGCGCUCAACCAGAAAGUCUGUAACCAUUUUAAGGGUA [A11U A23G U127C], the self-cleavage turned out to be 0.61. In the case of GUUAACGGUCUUAGGCCAUGGAAUCUAGGAGCACCAUUUCGCUGCCAGUGAAGAGAAGAACAAAGAAAAUCUGGGCCAGGCGGGCAUCAAAGGAGAUAGUCUUGCGCUCAACCAGAAAGUCUGUAAUCAUUUUAAGGGUA [A11U A24U A55G U57A A82G A92G A95G], the self-cleavage was determined as 0.47.

As for GUUAACGGUCUUAGGCCAUGGAAACUAGGAGCACCAUUUCGCUGCCAGUGAAGAGAUGAACAAAGAAAAUCUGGGCCAGGCAGGCAUCAAAAGAAUUAGUCUUGCGCUCAACCAGAAAGUCUGUAAUCAUUUUAAGGGUA [A11U A55G A96U], the self-cleavage came out at 2.15. With GUUAACGGUCUUAGGCCAUGGAAACUAGGAGCACCAUUUCGCUGCCAGUGAAGGAAUGAACAAAGAAAAUCUGGGCCAGGCAGGCAUCUAAAGAAAUAGUCUUGCGCUCAACCAGAAAGUCUGUAAUCAUUUUAAGGGUA [A11U A54G A89U] the figure was 1.6; with GUUAACGGUCUUAGGCCAUGGAAACUAGGAGCACCAUUUCGCUGCCAGUGAAGGAAUGGACAAAGAGAAUCUGGGCCAGGCAGGCAUCAAAAGAAAUAGCCUUGCGCUCAACCAGAAAGUCUGUAAUCAUUUUAAGGGUA [A11U A54G A59G A67G U100C], 1.16.

As for GUUAACGGUCUUAGGCCAUGGAAACUAGGAGCACCAUUUCGCUGCCAGUGAAGAAAUGGACAAAGAAAAUCUGGGCCAGGCAGGCAUCAGAAGAAAUAGUCUUGCGCUCAACCAGAAAGUCUGUAAUCAUUUUAAGGGUA [A11U A59G A90G], the self-cleavage was 1.13.

As for GUUAACGGUCUUAGGCCAUGGAAACUAGGAGCACCAUUUCGCUGCCAGUGAAGGAAUGAACAAAGAAAAUCUGGGCCAGGCAGGCAUCAAAAGAAAUAGUCUUGCGCUCAACCAGAAAGUCUGUAUACAUUUUAAGGGUA [A11U A54G A126U U127A], the self-cleavage was 0.74.
